# Target: XIAP BIR2 (His-BIR2 (124-240/C202A/C213G)) (Homo sapiens (Human), UniProt P98170, C202A/C213G)
# Conditions: read-out: XIAP-BIR2 AlphaScreen IC50; 50 nM His-BIR2 (124-240/C202A/C213G), 50 nM Biotinylated SMAC peptide
row,SMILES,IC50
1,"CN[C@@H](C)C(=O)N[C@H](C(=O)N1C[C@@H](NC(=O)c2ccc(CN(Cc3ccc4ccccc4c3)C(=O)[C@@H]3Cc4ccccc4CN3C(=O)[C@@H](NC(=O)[C@H](C)NC)C(C)(C)C)cc2)C[C@H]1C(=O)N[C@@H]1CCCc2ccccc21)C(C)(C)C [Example 14, (S)-2-((S)-3,3-Dimethyl-2-((S)-2-(methyl-amino)propanamido)butanoyl)-N-(4-(((3S,5S)-1-((S)-3,3-dimethyl-2-((S)-2-(methylamino)propanamido)butanoyl)-5-(((R)-1,2,3,4-tetra-hydronaphthalen-1-yl)carbamoyl)pyrrolidin-3-yl)carbamoyl)benzyl)-N-(naphthalen-2-ylmethyl)-1,2,3,4-tetrahydro-isoquinoline-3-carboxamide]",1720 nM
2,"CN[C@@H](C)C(=O)N[C@H](C(=O)N1C[C@@H](NC(=O)c2ccc(CN(C(=O)[C@@H]3Cc4ccccc4CN3C(=O)[C@@H](NC(=O)[C@H](C)NC)C(C)(C)C)[C@H](C)c3ccc4ccccc4c3)cc2)C[C@H]1C(=O)N[C@@H]1CCCc2ccccc21)C(C)(C)C [Example 15, (S)-2-((S)-3,3-Dimethyl-2-((S)-2-(methylamino)propanamido)butanoyl)-N-(4-(((3S,5S)-1-((S)-3,3-dimethyl-2-((S)-2-(methylamino)propanamido)butanoyl)-5-(((R)-1,2,3,4-tetra-hydronaphthalen-1-yl)carbamoyl)pyrrolidin-3-yl)carbamoyl)benzyl)-N-((R)-1-(naphthalen-2-yl)ethyl)-1,2,3,4-tetrahydro-isoquinoline-3-carboxamide]",330 nM
3,CN[C@@H](C)C(=O)N[C@H](C(=O)N1CCc2ccccc2[C@H]1C(=O)N(CCc1ccccc1)Cc1ccc(C(=O)NC2C[C@@H](C(=O)NC3CCCc4ccccc43)N(C(=O)[C@@H](NC(=O)[C@H](C)NC)C(C)(C)C)C2)cc1)C(C)(C)C (stereo partly shown) [Example 16],1600 nM
4,"CN[C@@H](C)C(=O)N[C@H](C(=O)N1C[C@@H](NC(=O)c2ccc(CN(C(=O)[C@@H]3Cc4ccccc4CN3C(=O)[C@@H](NC(=O)[C@H](C)NC)C(C)(C)C)[C@@H](C)c3cccc(Cl)c3)cc2)C[C@H]1C(=O)N[C@@H]1CCCc2ccccc21)C(C)(C)C [Example 18, (S)-N-((S)-1-(3-Chlorophenyl)ethyl)-2-((S)-3,3-dimethyl-2-((S)-2-(methylamino)propanamido)butanoyl)-N-(4-(((3S,5S)-1-((S)-3,3-dimethyl-2-((S)-2-(methylamino)propanamido)butanoyl)-5-(((R)-1,2,3,4-tetrahydro-naphthalen-1-yl)carbamoyl)pyrrolidin-3-yl)carbamoyl)benzyl)-1,2,3,4-tetrahydro-isoquinoline-3-carboxamide]",190 nM
5,"CN[C@@H](C)C(=O)N[C@H](C(=O)N1CCc2ccccc2[C@H]1C(=O)N(Cc1ccc(C(=O)N[C@H]2C[C@@H](C(=O)N[C@@H]3CCCc4ccccc43)N(C(=O)[C@@H](NC(=O)[C@H](C)NC)C(C)(C)C)C2)cc1)[C@H](C)c1ccccc1F)C(C)(C)C [Example 19, (S)-2-((S)-3,3-Dimethyl-2-((S)-2-(methylamino)propanamido)butanoyl)-N-(4-(((3S,5S)-1-((S)-3,3-dimethyl-2-((S)-2-(methylamino)propanamido)butanoyl)-5-(((R)-1,2,3,4-tetra-hydronaphthalen-1-yl)carbamoyl)pyrrolidin-3-yl)carbamoyl)benzyl)-N-((R)-1-(2-fluorophenyl)ethyl)-1,2,3,4-tetrahydro-isoquinoline-1-carboxamide]",1870 nM
6,"CC[C@H](c1ccccc1)N(Cc1ccc(C(=O)N[C@H]2C[C@@H](C(=O)N[C@@H]3CCCc4ccccc43)N(C(=O)[C@@H](NC(=O)[C@H](C)NC)C(C)(C)C)C2)cc1)C(=O)[C@@H]1Cc2ccccc2CN1C(=O)[C@@H](NC(=O)[C@H](C)NC)C(C)(C)C [Example 20, (S)-2-((S)-3,3-Dimethyl-2-((S)-2-(methylamino)propanamido)butanoyl)-N-(4-(((3S,5S)-1-((S)-3,3-dimethyl-2-((S)-2-(methylamino)propanamido)butanoyl)-5-(((R)-1,2,3,4-tetrahydro-naphthalen-1-yl)carbamoyl)pyrrolidin-3-yl)carbamoyl)benzyl)-N-((R)-1-phenylpropyl)-1,2,3,4-tetra-hydroisoquinoline-3-carboxamide]",320 nM
7,"CN[C@@H](C)C(=O)N[C@H](C(=O)N1C[C@@H](NC(=O)c2ccc(CN(C(=O)[C@@H]3Cc4ccccc4CN3C(=O)[C@@H](NC(=O)[C@H](C)NC)C(C)(C)C)[C@H](C)C(c3ccccc3)c3ccccc3)cc2)C[C@H]1C(=O)N[C@@H]1CCCc2ccccc21)C(C)(C)C [Example 21, (S)-2-((S)-3,3-Dimethyl-2-((S)-2-(methylamino)propanamido)butanoyl)-N-(4-(((3S,5S)-1-((S)-3,3-dimethyl-2-((S)-2-(methylamino)propanamido)butanoyl)-5-(((R)-1,2,3,4-tetra-hydronaphthalen-1-yl)carbamoyl)pyrrolidin-3-yl)carbamoyl)benzyl)-N-((R)-1,1-diphenylpropan-2-yl)-1,2,3,4-tetrahydro-isoquinoline-3-carboxamide]",2830 nM
8,"CN[C@@H](C)C(=O)N[C@H](C(=O)N1C[C@@H](NC(=O)c2ccc(CN(C(=O)[C@@H]3Cc4ccccc4CN3C(=O)[C@@H](NC(=O)[C@H](C)NC)C(C)(C)C)[C@H](C)c3ccccc3)cc2)C[C@H]1C(=O)N[C@@H]1CCCc2ccccc21)C(C)(C)C [Example 23, (S)-2-((S)-3,3-Dimethyl-2-((S)-2-(methylamino)propanamido)butanoyl)-N-(4-(((3S,5S)-1-((S)-3,3-dimethyl-2-((S)-2-(methylamino)propanamido)butanoyl)-5-(((R)-1,2,3,4-tetra-hydronaphthalen-1-yl)carbamoyl)pyrrolidin-3-yl)carbamoyl)benzyl)-N-((R)-1-phenylethyl)-1,2,3,4-tetra-hydroisoquinoline-3-carboxamide]",170 nM
9,"CN[C@@H](C)C(=O)N[C@H](C(=O)N1C[C@@H](NC(=O)c2ccc(CN(C(=O)[C@@H]3Cc4ccccc4CN3C(=O)[C@@H](NC(=O)[C@H](C)NC)C(C)(C)C)[C@H](C)c3ccccc3OC)cc2)C[C@H]1C(=O)N[C@@H]1CCCc2ccccc21)C(C)(C)C [Example 24, (S)-2-((S)-3,3-Dimethyl-2-((S)-2-(methylamino)propanamido)butanoyl)-N-(4-(((3S,5S)-1-((S)-3,3-dimethyl-2-((S)-2-(methylamino)propanamido)butanoyl)-5-(((R)-1,2,3,4-tetrahydro-naphthalen-1-yl)carbamoyl)pyrrolidin-3-yl)carbamoyl)benzyl)-N-((R)-1-(2-methoxyphenyl)ethyl)-1,2,3,4-tetrahydro-isoquinoline-3-carboxamide]",60 nM
10,"CN[C@@H](C)C(=O)N[C@H](C(=O)N1C[C@@H](NC(=O)c2ccc(CN(C(=O)[C@@H]3Cc4ccccc4CN3C(=O)[C@@H](NC(=O)[C@H](C)NC)C(C)(C)C)[C@H](C)Cc3ccccc3F)cc2)C[C@H]1C(=O)N[C@@H]1CCCc2ccccc21)C(C)(C)C [Example 25, (S)-2-((S)-3,3-Dimethyl-2-((S)-2-(methylamino)propanamido)butanoyl)-N-(4-(((3S,5S)-1-((S)-3,3-dimethyl-2-((S)-2-(methylamino)propanamido)butanoyl)-5-(((R)-1,2,3,4-tetrahydro-naphthalen-1-yl)carbamoyl)pyrrolidin-3-yl)carbamoyl)benzyl)-N-((R)-1-(2-fluorophenyl)propan-2-yl)-1,2,3,4-tetrahydro-isoquinoline-3-carboxamide]",650 nM
11,"CN[C@@H](C)C(=O)N[C@H](C(=O)N1CC(NC(=O)c2ccc(CN(C(=O)[C@@H]3Cc4ccccc4CN3C(=O)[C@@H](NC(=O)[C@H](C)NC)C(C)(C)C)C(C)c3ccccc3Cl)cc2)C[C@H]1C(=O)NC1CCCc2ccccc21)C(C)(C)C (stereo partly drawn) [Example 26, (3S)-N-(1-(2-Chlorophenyl)ethyl)-2-((S)-3,3-dimethyl-2-((S)-2-(methylamino)propanamido)butanoyl)-N-(4-(((3S,5S)-1-((S)-3,3-dimethyl-2-((S)-2-(methylamino)propanamido)butanoyl)-5-(((R)-1,2,3,4-tetrahydro-naphthalen-1-yl)carbamoyl)pyrrolidin-3-yl)carbamoyl)benzyl)-1,2,3,4-tetra-hydroisoquinoline-3-carboxamide]",100 nM
12,"CN[C@@H](C)C(=O)N[C@H](C(=O)N1CCc2ccccc2[C@H]1C(=O)N(Cc1ccc(C(=O)N[C@H]2C[C@@H](C(=O)N[C@@H]3CCCc4ccccc43)N(C(=O)[C@@H](NC(=O)[C@H](C)NC)C(C)(C)C)C2)cc1)[C@H](C)Cc1ccccc1F)C(C)(C)C [Example 27, (S)-2-((S)-3,3-Dimethyl-2-((S)-2-(methylamino)propanamido)butanoyl)-N-(4-(((3S,5S)-1-((S)-3,3-dimethyl-2-((S)-2-(methylamino)propanamido)butanoyl)-5-(((R)-1,2,3,4-tetrahydro-naphthalen-1-yl)carbamoyl)pyrrolidin-3-yl)carbamoyl)benzyl)-N-((R)-1-(2-fluorophenyl)propan-2-yl)-1,2,3,4-tetrahydro-isoquinoline-1-carboxamide]",1740 nM
13,"CN[C@@H](C)C(=O)N[C@H](C(=O)N1C[C@@H](NC(=O)c2ccc(CN(C(=O)[C@@H]3Cc4ccccc4CN3C(=O)[C@@H](NC(=O)[C@H](C)NC)C(C)(C)C)[C@H](C)c3ccccc3C)cc2)C[C@H]1C(=O)N[C@@H]1CCCc2ccccc21)C(C)(C)C [Example 28, (S)-2-((S)-3,3-Dimethyl-2-((S)-2-(methylamino)propanamido)butanoyl)-N-(4-(((3S,5S)-1-((S)-3,3-dimethyl-2-((S)-2-(methylamino)propanamido)butanoyl)-5-(((R)-1,2,3,4-tetra-hydronaphthalen-1-yl)carbamoyl)pyrrolidin-3-yl)carbamoyl)benzyl)-N-((R)-1-(o-tolyl)ethyl)-1,2,3,4-tetrahydro-isoquinoline-3-carboxamide]",250 nM

# — patent publication US9603889B2, “IAP antagonists” (BRISTOL-MYERS SQUIBB COMPANY, priority 2012, dated 2017)
